Data: PubChem BioAssay AID493208 (National Center for Advancing Translational Sciences (NCATS), 2011)
The campaign covered roughly 44,000 compounds. About 340 (0.77%) were called active. Another 5% or so got no clear call; they are omitted. The call rests on the fitted dose curve; in most records, active means well fitted inhibition curve with a large enough effect; inconclusive means small, poorly fitted or top-dose-only effect; inactive means flat fitted curve, though single readings scatter. The list shows a part of the results.

Experiment: Acumen qHTS Assay for Inhibitors of the mTORC1 Signaling Pathway in MEF (Tsc2-/-, p53-/-) Cells: Sytravon;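 further: plate controls were DMSO for no effect and rapamycin for full effect; nearly all actives have a fitted effect of over 50% in size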
Settings: phospho-rpS6 immunofluorescence/PI, 24 h; series mostly up to 38.3 µM; activity change, negative = inhibition: at the top concentration
In short: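 Read-out: phospho-S6 Alexa-488 intensity over PI intensity per well, scored as % active cells using thresholds from rapamycin (7.5 nM) and DMSO controls. Tsc2-/-, p53-/- MEFs exposed to compound for 24 h; PI cell count recorded as viability.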

| SMILES | activity change, negative = inhibition |
| --- | --- |
| CCOC(=O)CC(NC(=O)CCc1c(C)nc2c(-c3ccccc3)c(C)nn2c1C)c1ccc(C)cc1 (configuration not stated) | inactive: -9.65% |
| Cc1ccc(CNC(=O)C2CCN(C(=O)c3ccc(-n4ccc5ccccc54)s3)CC2)cc1 | inactive: -5.62% |
| COc1ccc(Cn2ccc3nc(C)c(C(=O)Nc4ccc(F)cc4)cc3c2=O)cc1 | inactive: -22.6% |
| CCn1cc(C(=O)NCCc2ccc(Cl)cc2)c(=O)c2cc(S(=O)(=O)N3CCc4ccccc4C3)ccc21 | inactive: -12% |
| COCCCNC(=O)c1[nH]c2cc(OC)ccc2c1Sc1ccc(C)cc1 | inactive: -1.18% |
| Cc1c(NC(=O)Cc2ccc(F)cc2)cccc1-c1nc2cccnc2s1 | inactive: -0.455% |
| Cc1cccc(NC(=O)CSc2nc3ccc(NC(=O)COc4ccc(Cl)cc4)cc3s2)c1 | inactive: -23.5% |
| Fc1ccc(-c2nc(-c3cccs3)c(-c3cccs3)[nH]2)cc1 | inactive: -9.07% |
| Cc1cccc(NC(=O)c2cc3c(=O)n(Cc4ccco4)ccc3nc2C)c1 | inactive: -3.49% |
| Cc1nn(-c2ccccc2)c2c1N(CC(=O)NCc1ccc(N(C)C)cc1)C(=O)CS2 | inactive: -7.03% |
| O=C(NCCOCCO)C(=O)Nc1c2c(nn1-c1ccc(F)cc1)CSC2 | inactive: 1.46% |
| CCC(=O)N1CCc2cc(S(=O)(=O)CCC(=O)N3CCN(c4ccccc4Cl)CC3)ccc21 | inactive: -4.61% |
| CN(c1ncnc2c1c(-c1ccccc1)cn2-c1ccc(F)cc1)C1CCCCC1 | inactive: -14.7% |
| Cc1ccc(N(Cc2cccs2)C(=O)c2ccccc2)cc1 | inactive: 1.36% |
| COc1ccc(-c2nc3ccc(NS(C)(=O)=O)cc3o2)cc1 | inactive: 1.41% |
| Clc1ccccc1Cn1cccc1C1=NC(Cc2ccccc2)CO1 (configuration not stated) | inactive: 2.77% |
| O=C(O)c1ccc(Nc2nc(-c3ccccc3)c3cc(Br)ccc3n2)cc1 | inactive: 0.0912% |
| Cn1c(SCC(N)=O)nc2c([nH]c3ccccc32)c1=O | inactive: -9.71% |
| Cc1onc(-c2ccc(Br)cc2)c1C(=O)Nc1ccc(Br)cc1F | inactive: -7.18% |
| CCOC(=O)c1scc(-c2ccc(C)cc2)c1S(=O)(=O)Nc1cccc(CC)c1 | inactive: -20.1% |
| COc1ccc(-n2c(SCC(=O)Nc3nnc(C)s3)nc3c([nH]c4ccccc43)c2=O)cc1 | inactive: 2.88% |

| SMILES | activity change, negative = inhibition |
| --- | --- |
| COc1cccc2sc(N3CCN(C(=O)CS(=O)(=O)c4ccc(Cl)cc4)CC3)nc12 | inactive: 0.765% |
| CC(C)N(C(=O)c1cc2c(Cl)nc3ccccc3c2s1)C1CCCCC1 | inactive: -3.75% |
| COc1cccc(CNc2ncc(-c3ccc(Br)cc3)n2C)c1 | inactive: -18.5% |
| Cc1cccc(C(=O)Nc2cc3c(cc2N2CCOCC2)n(C)c(=O)n3C)c1 | inactive: 1.4% |
| O=C(O)CC(NS(=O)(=O)c1ccc(Br)s1)c1ccccc1 (configuration not stated) | inactive: 6.91% |
| CCOc1ccc(NC(=O)Cn2cc(C(=O)c3ccc(C)cc3)c(=O)c3cc4c(cc32)OCCO4)cc1 | inactive: -12.1% |
| O=C(NCCCN1CCN(c2ccccc2)CC1)c1nnc(Cc2ccc(F)cc2)o1 | inactive: -10.1% |
| CCN1C(C(=O)c2ccccc2)=C(OC(=O)COc2ccccc2)c2ccccc2S1(=O)=O | inactive: -10% |
| Nc1c(-c2nc(-c3ccccc3)cs2)c2ccccn2c1C(=O)c1ccc2c(c1)OCO2 | inactive: -0.872% |
| CC1=C(C(=O)Nc2cc(C)ccc2C)C2(CCCCCC2)OC1=O | inactive: -2.08% |
| Cc1cc(C)c(S(=O)(=O)N2CCN(Cc3nc4ccc(C)cc4o3)CC2)c(C)c1 | inactive: 31.7% |
| CCOCCCNC(=O)Nc1cc(C(=O)NCc2ccc(C(C)C)cc2)ccc1N1CCCC1 | inactive: 0% |
| CC(C)OCCCN(C)C1CCN(S(=O)(=O)c2csc(C(N)=O)c2)CC1 | inactive: 0% |
| Cc1ccc(N2CCN(S(=O)(=O)c3ccc4oc(=O)c5ncn(C)c5c4c3)CC2)c(C)c1 | inactive: -16.9% |
| COc1ccc(-n2c(C)nc3cc(C(=O)NC4CCCC4)ccc32)cc1 | inactive: -0.118% |
| CSc1cccc(NC(=O)Cn2nc(C)c3sc4ccccc4c3c2=O)c1 | inactive: -4.35% |
| COc1cc2c(cc1OC)C(COc1ccc(F)cc1)N(C(=O)c1ccccc1F)CC2 (configuration not stated) | inactive: 10.6% |
| CC(=O)c1ccc(C(=O)N(Cc2cccnc2)c2nc3c(Cl)cccc3s2)cc1 | inactive: -0.602% |
| Cc1cc(C)cc(NC(=O)C2CCN(c3cc(C)nc4c(-c5ccc(Cl)cc5)c(C)nn34)CC2)c1 | inactive: -0.666% |
| Cc1ccc(S(=O)(=O)c2nnn3c2nc(NCc2cccs2)c2sccc23)cc1C | inactive: -0.619% |
| COC(=O)C(C)NC(=O)N1CCN(c2nnc(C)c3c(C)n(-c4ccc(Cl)cc4)nc23)CC1 (configuration not stated) | inactive: -4.71% |

| SMILES | activity change, negative = inhibition |
| --- | --- |
| Cn1nnnc1SCCNCc1ccccc1OCc1ccc(Cl)cc1Cl | inactive: -4.88% |
| Cc1ccc(C)c(NS(=O)(=O)c2ccc3c(c2)n(C)c(=O)n3C)c1 | inactive: -0.56% |
| COc1ccc(-c2noc(Cn3c(=O)c4ccccc4n(CC(=O)Nc4cccc(C(F)(F)F)c4)c3=O)n2)cc1 | inactive: -12% |
| CC(C)NC(=O)N1CCC(N2CCN(Cc3ccc(F)cc3)C(=O)C2=O)CC1 | inactive: -1.78% |
| CCOc1ccc(N(CC)S(=O)(=O)N2CCCC(C(=O)NCc3ccc(Cl)cc3)C2)cc1 (configuration not stated) | inactive: -10.1% |
| O=C(Cc1ccc(F)cc1)NCCc1csc(-c2cccc(F)c2)n1 | inactive: 2.03% |
| Cc1ccccc1-c1nc(CS(=O)(=O)CC(=O)Nc2cccc(C(F)(F)F)c2)c(C)o1 | inactive: -0.164% |
| COc1ccc2c(c1)c1c(c(=O)n(Cc3ccccc3)c(=O)n1CC(=O)Nc1c(C)cccc1C)n2C | inactive: -4.25% |
| Cc1ccc(S(=O)(=O)NCCc2sc3nc(-c4ccccc4)nn3c2C)cc1C | inactive: -13.5% |
| O=C(c1cccc(Cl)c1)N(Cc1ccco1)Cc1ccccc1Cl | inactive: 3.97% |
| CCc1nc2onc(C)c2c(=O)n1CC(=O)O | inactive: 0.755% |
| CCn1c(SCC(=O)N2CCC(C)CC2)nnc1-c1ccccc1O | inactive: -6.94% |
| O=S(=O)(Nc1cccc(-c2ccc(N3CCCCCC3)nn2)c1)c1ccccc1 | inactive: -3.24% |
| Cc1oc(-c2cccc(Br)c2)nc1Cn1c(=O)cc(-c2ccccc2)c2c(C)nn(C)c21 | inactive: -8.04% |
| COc1ccccc1NC(=O)C1=C(C)Nc2nc3ccccc3n2C1c1cccc(Br)c1 (configuration not stated) | inactive: 2.77% |
| COc1ccc(N2CCN(Cc3cc(=O)oc4ccc(OC)cc34)CC2)cc1 | inactive: 4.92% |
| CCc1ccccc1Nc1cc(C(=O)NCCc2ccccc2)c2ccccc2n1 | inactive: -8.71% |
| CCCOc1ccc(Nc2cc(C)nc(C)n2)cc1 | inactive: -11.1% |
| O=C(Cn1c(=O)n(-c2ccc(F)cc2)c(=O)c2sc3ccccc3c21)NC1CCCCC1 | inactive: -1.88% |
| CCOC(=O)c1ccc2c(c1)N(Cc1cccc(C(F)(F)F)c1)C(=O)c1ccccc1S2(=O)=O | inactive: 1.75% |
